Results from PubChem BioAssay (Tox21).
Values joined by “and” are separate entries in the source; they are usually repeats but may differ in a detail not shown here. Identical values can stand only once. This list was built around the results that the source calls inconclusive (neither active nor inactive); the mix of calls is not that of the screen. A potency beside an inconclusive call is a rough fit, not a confirmed value. Some structures have more than one record in an assay (separate samples or runs), and their calls can disagree. Active and inactive are the calls of the source. Calls follow the shape of the dose curve; as a rule, active = well fitted cell-killing curve with a large enough effect in the repeat runs; inconclusive = weak or mixed curves, or effect the other way; inactive = no such curve, though single readings can be large or run the other way.

Test: qHTS assay to identify small molecule agonists of the estrogen receptor alpha (ER-alpha) signaling pathway in the presence of an antagonist - cell viability counter screen (AID 1259386);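 also: cells exposed to compounds for 22 h at 37 °C before the viability read; nearly all actives have a fitted effect of over 30% in size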
Settings: VM7Luc4E2 viability, CellTiter-Fluor fluorescence, 22 h; series mostly up to 92.4 µM
Method in brief: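 Fluorescent CellTiter-Fluor viability signal from VM7Luc4E2 cells, with the reagent added during the final hour of a 22hr compound exposure at 37C in the presence of 10.0nM ICI-182,780.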
Potency is read from the fitted curve at half-maximal effect; tags tell the direction and shape of the fitted curve.

Row | Compound | Potency
1 | CCCOC(=O)c1cc(O)c(O)c(O)c1 | inconclusive: 76.6 µM [cytotoxic, single point] and inconclusive: 61.1 µM [cytotoxic]
2 | O=C(O)c1cc(O)c2c(c1)C(=O)c1cccc(O)c1C2=O | inconclusive: 35.4 µM [cytotoxic, partial curve]
3 | CC(=O)c1ccc2c(c1)Cc1ccccc1-2 | inactive
4 | CCCC(C(=O)OCCN(CC)CC)(c1ccccc1)c1ccccc1 | inconclusive: 15 µM [cytotoxic, partial curve]
5 | CCC1=C[C@@H]2CN(C1)Cc1c([nH]c3ccccc13)[C@@](C(=O)OC)(c1cc3c(cc1OC)N(C)[C@H]1[C@@](O)(C(=O)OC)[C@H](OC(C)=O)[C@]4(CC)C=CCN5CC[C@]31[C@@H]54)C2 | inconclusive: 26.6 µM [cytotoxic, partial curve]
6 | O=C(c1ccccc1)c1ccc(O)cc1O | inconclusive: 78.4 µM [cytotoxic, single point]
7 | Nc1ccc(Cl)cc1[N+](=O)[O-] | inconclusive: 53.9 µM [cytotoxic, partial curve]
8 | CCN(Cc1cccnc1)C(=O)c1cccc(Cl)c1[C@]1(C)C(=O)N(Cc2ccc(OC)cc2OC)c2ccc(Cl)cc21 | inconclusive: 64.1 µM [cytotoxic, single point]
9 | COc1ccc(Nc2ccc(OC)cc2)cc1 | inconclusive: 35 µM [cytotoxic, partial curve]
10 | Cc1cc(C)c(N=Nc2c(O)c(S(=O)(=O)O)cc3cc(S(=O)(=O)O)ccc23)cc1C | inconclusive: 3.4 µM [cytotoxic, single point]
11 | O=C(N/N=C/c1ccc([N+](=O)[O-])o1)c1ccc(O)cc1 | active: 29.8 µM
12 | COc1ccc(N=[N+]([O-])c2ccc(OC)cc2)cc1 | inactive
13 | CCCCN(CCCC)CC(O)c1cc(Cl)cc2c1-c1ccc(Cl)cc1/C2=C/c1ccc(Cl)cc1 (stereo not drawn) | inconclusive: 29.8 µM [cytotoxic, single point]
14 | CCCCc1nc2cccnc2n1Cc1ccc(-c2ccccc2-c2nnn[nH]2)cc1 | inconclusive: 61.1 µM [cytotoxic, partial curve]
15 | O=C(N/N=C/c1ccccc1O)c1ccncc1 | inconclusive: 18.8 µM [cytotoxic, partial curve, poor fit]
16 | CCCCCCCCCCCC[N+](C)(C)C | inconclusive: 76.7 µM [cytotoxic, single point] and inconclusive: 68.6 µM [cytotoxic, single point] and active: 54.5 µM
17 | CCCC1O[C@@H]2C[C@H]3[C@@H]4CCC5=CC(=O)C=C[C@]5(C)[C@H]4[C@@H](O)C[C@]3(C)[C@]2(C(=O)CO)O1 (stereo partly drawn) | inconclusive: 61.1 µM [cytotoxic, single point]
18 | CCOc1ccc(N)c([N+](=O)[O-])c1 | inconclusive: 61.1 µM [cytotoxic, partial curve]
19 | COc1ccc(C(=O)CC(=O)c2ccc(C(C)(C)C)cc2)cc1 | inconclusive: 52.3 µM [cytotoxic, partial curve]

Row | Compound | Potency
20 | Cc1cnc(NC(=O)C2=C(O)c3ccccc3S(=O)(=O)N2C)s1 | active: 43.4 µM and inconclusive: 38.6 µM [cytotoxic, partial curve]
21 | Nc1c(NC/C=C\COc2cc(CN3CCCCC3)ccn2)c(=O)c1=O | inconclusive: 10.3 µM [cytotoxic, partial curve]
22 | CC(=O)Nc1ncc([N+](=O)[O-])s1 | inconclusive: 16.8 µM [cytotoxic, partial curve]
23 | CN(Cc1ccc(C(C)(C)C)cc1)Cc1cccc2ccccc12 | inactive
24 | Cc1ccc(O)c([C@H](CCN(C(C)C)C(C)C)c2ccccc2)c1 | inconclusive: 26.6 µM [cytotoxic, partial curve, poor fit]
25 | CN1CCC(N(Cc2cccs2)c2ccccc2)CC1 | inactive
26 | Cc1oc(-c2ccccc2)nc1CCC(=O)c1ccc(CC2SC(=O)NC2=O)cc1 (stereo not drawn) | inconclusive: 23.7 µM [cytotoxic, partial curve]
27 | CCCCCCOC(=O)c1ccccc1 | inactive
28 | C[n+]1ccn(Cc2ccccc2)c1 | inconclusive: 15.3 µM [cytotoxic, partial curve]
29 | COC1=C(OC)C(=O)C(CCCCCCCCCCO)=C(C)C1=O | inconclusive: 33.5 µM [cytotoxic, single point]
30 | Oc1ccc(CCNCCCCCCNCCc2ccccc2)cc1O | inconclusive: 13.3 µM [cytotoxic, partial curve]
31 | CCc1nn(C2CCCCC2)c2cc(C3(C#N)CCC(C(=O)O)CC3)ccc12 (stereo not drawn) | inconclusive: 24.3 µM [cytotoxic, full curve]
32 | O=C1c2ccccc2Cc2ccccc21 | inconclusive: 27.5 µM [cytotoxic, partial curve]
33 | CCCCCCCCCCCCCC[N+](C)(C)C | inconclusive: 1.19 µM [cytotoxic, single point]
34 | CCOC(N)=O | inactive
35 | CCCCC(CC)CN1C(=O)C2C3C=CC(C3)C2C1=O (stereo not drawn) | inconclusive: 43.3 µM [cytotoxic, partial curve, poor fit]
36 | Clc1ccc(C(Cn2ccnc2)OCc2ccc(Sc3ccccc3)cc2)c(Cl)c1 (stereo not drawn) | inactive
37 | O=C(c1ccc(F)cc1)C1CCN(CCn2c(=S)[nH]c3ccccc3c2=O)CC1 | inconclusive: 23.7 µM [cytotoxic, partial curve, poor fit]
38 | CCCCOc1ccc(CC(=O)NO)cc1 | inconclusive: 26.6 µM [cytotoxic, partial curve]
